Some of the results follow.

The test concerns the target T1, OsWOX13 (Oryza sativa, UniProt Q5QMM3 1-267).
T1 sequence: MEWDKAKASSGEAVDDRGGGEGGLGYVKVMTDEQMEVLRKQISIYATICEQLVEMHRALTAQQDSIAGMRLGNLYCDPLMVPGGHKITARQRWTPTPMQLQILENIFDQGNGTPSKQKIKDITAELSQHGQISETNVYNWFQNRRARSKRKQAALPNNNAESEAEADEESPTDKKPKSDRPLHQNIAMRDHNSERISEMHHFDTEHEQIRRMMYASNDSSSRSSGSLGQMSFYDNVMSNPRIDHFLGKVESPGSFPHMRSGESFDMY
The test can be described thus: protein-binding microarray (RPBM); PBS, 2% BSA, 51.3 ng/ul salmon testes DNA, 50 uM zinc acetate, 200 nM TF, 25 C, 1 h; high values mean tight binding. Particulars: protein: recombinant; tags: N-terminal polyhistidine and DsRed monomer fusion (pET32a); label: CyDye5-dUTP incorporated in the synthesized complementary strand; 3' TTTTT single-stranded linker to array surface; dsDNA, one strand shown. A digest of the protocol:
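Binding signal here means per-feature fluorescence intensity in arbitrary units. The values were read on an Axon 4000B scanner after a custom Agilent array, double-stranded by primer extension with Cy5-dUTP, was incubated with 200 nM protein at 25 °C for 1 h in PBS with 2% BSA, salmon testes DNA and 50 µM zinc acetate, then washed. The proteins were transcription factors with an N-terminal polyhistidine tag and DsRed, expressed in E. coli BL21-CodonPlus and purified on Ni–NTA.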
In the case of “TTAACCAATCATAAACTCTCCACGTTCACTTCTACCTACTCGGAGTCACCTAGTGCAG”, the binding signal was 5880 fluorescence intensity (a.u.).

As to “GTTAAACTTTGATGAAACCACTTGAAAATTTTCAAACATGCGGAGTCACCTAGTGCAG”, the binding signal is 3540 fluorescence intensity (a.u.). The result for “AGAAGATTAATAAAATGTGAGCATTATTAGCATTAGTATACGGAGTCACCTAGTGCAG” reads 6070 fluorescence intensity (a.u.); that for “TGTTTAAAACGTCAATTAAAATAAAATCAGAGATAGCAGTCGGAGTCACCTAGTGCAG”, 14300 fluorescence intensity (a.u.).

On to “CAGTTTGACTGTTGACCCGTAGTTTTGTCACATGATGGATCGGAGTCACCTAGTGCAG”, for which the binding signal is 7240 fluorescence intensity (a.u.).

With “ACAATTATCACCAAATTAGGGGTGAAAATGATCGAAAACGCGGAGTCACCTAGTGCAG”, the binding signal is 12600 fluorescence intensity (a.u.). Regarding “ACGATAATTGATATGGATAATTGGATTGGATTATATGCAGCGGAGTCACCTAGTGCAG”, the binding signal is 41000 fluorescence intensity (a.u.). Turning to “AGGCTGATTTTGATTAGAAAGGCTTAGATCGGACAATAGGCGGAGTCACCTAGTGCAG”, the binding signal is 39700 fluorescence intensity (a.u.). With “GTGGCAATCAAGCTCAAGATAGAAGAAAAGGAAAATAAGTCGGAGTCACCTAGTGCAG”, the binding signal is 4350 fluorescence intensity (a.u.). As for “ATTGATTTAATGAAAATAATTTAATATTATAAATATTACTCGGAGTCACCTAGTGCAG”, the binding signal is 35700 fluorescence intensity (a.u.).

For the sequence “TTCTTAATTTCTTCTTTCAGGTCATGTGCATCCATATTGTCGGAGTCACCTAGTGCAG”, the binding signal is 9620 fluorescence intensity (a.u.). Turning to “CGAATTAATTAGGTTTAATAAATTCGTCTCGCAATTTACACGGAGTCACCTAGTGCAG”, the binding signal was 5290 fluorescence intensity (a.u.). In the case of “TTAGATTTGATGCAGGTACTCGTATTTATGGTTAAATTTTCGGAGTCACCTAGTGCAG”, the binding signal was 7530 fluorescence intensity (a.u.). For “TTTCTTAATTTGATAGTACTAAATTTCTAGTTAGTATCTCCGGAGTCACCTAGTGCAG”, the binding signal is 21200 fluorescence intensity (a.u.). As for “TGTAATTTTACACCGTTCATACCCAACGTTTGATTGTTCGCGGAGTCACCTAGTGCAG”, the binding signal is 11100 fluorescence intensity (a.u.). Then “ACTGGAATAGATTAGCACAAAGGCTGAGCGAATGTTTTGTCGGAGTCACCTAGTGCAG”, with 14600 fluorescence intensity (a.u.); and “ATAAAATTGATTGCTCGAGTTATAAAATTCGACTAAATTTCGGAGTCACCTAGTGCAG”, with 32800 fluorescence intensity (a.u.). As for “AGTTGACAGGAGGAGGTGAGAGCTTAGCCAACAAGCCCCACGGAGTCACCTAGTGCAG”, the binding signal was 7110 fluorescence intensity (a.u.). “AATTTTCCCATAAATTAATGTAAATTGCACATATGCACCCCGGAGTCACCTAGTGCAG”: the binding signal is 7520 fluorescence intensity (a.u.). “ACACTAATTTGTGACAAGAGCGTGGAAGTCAAGAGCGATGCGGAGTCACCTAGTGCAG”: the binding signal was 23400 fluorescence intensity (a.u.). “TAAATTTACATTAATAGAACCAGAAGCAATCCAATTCTGTCGGAGTCACCTAGTGCAG”: the binding signal is 14400 fluorescence intensity (a.u.). The result for “TAATGGAAATTGGAAATGATTTCCCACCCATCAAAAGACACGGAGTCACCTAGTGCAG” reads 11900 fluorescence intensity (a.u.).

In the case of “GACAAATTTTGACCGAGAAATCTGTCGCCAGATGCCTAGCCGGAGTCACCTAGTGCAG”, the binding signal is 3900 fluorescence intensity (a.u.). As for “CCGGTAGATTGGATATTACAGCAGCCCAACTCCGACCAACCGGAGTCACCTAGTGCAG”, the binding signal was 35000 fluorescence intensity (a.u.). The result for “TTGATATAATTAATTATGCTTGAATTAAATAATTGGTACTCGGAGTCACCTAGTGCAG” reads 50200 fluorescence intensity (a.u.); that for “CCACAGTAATTAATTTCTTTCAAATATTCAAACCCATACTCGGAGTCACCTAGTGCAG”, 29100 fluorescence intensity (a.u.). The result for “CAAGCTAATCATCCCCTGAAATTATGGCATCTTCTTGGTTCGGAGTCACCTAGTGCAG” reads 13000 fluorescence intensity (a.u.). Then “TTTGAACTGATAATCATTATGACAGTTTCTTTCATCGTGCCGGAGTCACCTAGTGCAG”, with 7890 fluorescence intensity (a.u.); and “AACATAACATGTAATTATATCATAGTCAAATTTATTATTTCGGAGTCACCTAGTGCAG”, with 4600 fluorescence intensity (a.u.); and “ATTAATTATGGTGAATAAATTTGCAGGGACGGGTGTGTACCGGAGTCACCTAGTGCAG”, with 21100 fluorescence intensity (a.u.).

Regarding “CGACCCAATCACCCAACACGAACAGTGGTCCCTCCCTCACCGGAGTCACCTAGTGCAG”, the binding signal was 3860 fluorescence intensity (a.u.).

On to “ATGTTTAGTGTCAATTTAATCACTAAATTTGGATATTCATCGGAGTCACCTAGTGCAG”, for which the binding signal was 11100 fluorescence intensity (a.u.). In the case of “TTTGCAGAAATAATTTAATTACGAAGCAAACTCTCCTTGTCGGAGTCACCTAGTGCAG”, the binding signal was 6740 fluorescence intensity (a.u.). Then “TTCATGATATCAATTTATGAGCATCAAAAGATTACCATGCCGGAGTCACCTAGTGCAG”, with 6980 fluorescence intensity (a.u.); and “GCAAATCAACTAATCAAATTCCCTCCGGAGGAGGAGGATACGGAGTCACCTAGTGCAG”, with 4010 fluorescence intensity (a.u.). “ATCGAGATTAATCGAAAACTATTTTCTAGCTAGACTGAAACGGAGTCACCTAGTGCAG”: the binding signal was 4730 fluorescence intensity (a.u.).

Consider “CCGTCTTTGATGATGATGACGAGGACGACTGTGGAATGCCCGGAGTCACCTAGTGCAG”, for which the binding signal was 6330 fluorescence intensity (a.u.). As to “GAGTAACAGAATTGTATTTGAATTTTGTCGGGGCCGATTACGGAGTCACCTAGTGCAG”, the binding signal was 5860 fluorescence intensity (a.u.). Turning to “TAGAATTAGTTGATAGCTCTTTCATTGTTTTGGTCAACTCCGGAGTCACCTAGTGCAG”, the binding signal was 3630 fluorescence intensity (a.u.).

For “GATGATGACAAACATGTTAGCGCCGTCCCTCTAGCCTCCTCGGAGTCACCTAGTGCAG”, the binding signal is 7730 fluorescence intensity (a.u.).

Take “ATACTATCACAAATGAAATTAATTGAAATGAAGAAAGAAACGGAGTCACCTAGTGCAG”: the binding signal was 9850 fluorescence intensity (a.u.). The result for “TGTAAACTGATTGAAGTGAACATTTAAACCTGACGTGATTCGGAGTCACCTAGTGCAG” reads 38800 fluorescence intensity (a.u.).
